Measurements: article PMC7819943, “Rice protein-binding microarrays: a tool to detect cis-acting elements near promoter regions in rice”
This is one part of the list.

The sequences below were run against T1, OsWOX13 (Oryza sativa, UniProt Q5QMM3 1-267) (assay: protein-binding microarray (RPBM); PBS, 2% BSA, 51.3 ng/ul salmon testes DNA, 50 uM zinc acetate, 200 nM TF, 25 C, 1 h; high values mean tight binding). Conditions: protein: recombinant; tags: N-terminal polyhistidine and DsRed monomer fusion (pET32a); label: CyDye5-dUTP incorporated in the synthesized complementary strand; 3' TTTTT single-stranded linker to array surface; dsDNA, one strand shown.
T1 sequence: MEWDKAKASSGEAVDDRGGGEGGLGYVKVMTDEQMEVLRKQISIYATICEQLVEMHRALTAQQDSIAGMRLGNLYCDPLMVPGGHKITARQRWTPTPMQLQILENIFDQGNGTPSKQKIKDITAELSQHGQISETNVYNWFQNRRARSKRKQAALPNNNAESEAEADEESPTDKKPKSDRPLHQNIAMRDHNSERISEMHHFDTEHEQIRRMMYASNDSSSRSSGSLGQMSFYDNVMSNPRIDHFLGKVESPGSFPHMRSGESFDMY
Outline: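 Transcription factors, each fused N-terminally to a polyhistidine tag and DsRed, were expressed in E. coli BL21-CodonPlus and purified on Ni–NTA. A custom Agilent array was made double-stranded by primer extension with Cy5-dUTP and blocked with 2% BSA. It was incubated with 200 nM protein in PBS, 2% BSA, salmon testes DNA and 50 µM zinc acetate at 25 °C for 1 h, then washed. The binding signal is per-feature fluorescence intensity (arbitrary units) read on an Axon 4000B scanner.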

Sequence	binding signal
CCGTTAGTTGTCCATCAACATTGACAGCTGAAAATGCCTTCGGAGTCACCTAGTGCAG	5480 fluorescence intensity (a.u.)
AGAAAATTTAATCTTAAATATGGACATTACGAATGTACAACGGAGTCACCTAGTGCAG	4110 fluorescence intensity (a.u.)
ATAATGATATGTTTCTAATATGATAGAATTTTGTAATGGTCGGAGTCACCTAGTGCAG	8260 fluorescence intensity (a.u.)
ATCTATAATTACCAAAACTTGATAATGTAACGATGCCTAACGGAGTCACCTAGTGCAG	18500 fluorescence intensity (a.u.)
CCAAATTGGCATGGAGGACAACAGGGAAGGCGATGATGAACGGAGTCACCTAGTGCAG	19900 fluorescence intensity (a.u.)
ATAAATTAAATTTTATTCACTAATAACACATTTTGTCTCACGGAGTCACCTAGTGCAG	17900 fluorescence intensity (a.u.)
CTGAAATTGGCCCAGTTTTATTAATGTGGGAGTAGTTTCCCGGAGTCACCTAGTGCAG	7960 fluorescence intensity (a.u.)
GGAATGTCAATTAAACTCAATGTTTAGATGACAAACGACACGGAGTCACCTAGTGCAG	18200 fluorescence intensity (a.u.)
CGAGTAGATAGATAGATTGACATACCTGCATAGTCGGAGACGGAGTCACCTAGTGCAG	34300 fluorescence intensity (a.u.)
CATTAACAGAACATGCCCATAAGCATAACTCAACTTGCTGCGGAGTCACCTAGTGCAG	6580 fluorescence intensity (a.u.)
CTGTTGAAATTTTGAGCACAAAGGATTCCCTCACATGCAGCGGAGTCACCTAGTGCAG	4420 fluorescence intensity (a.u.)
ATGAAACTTTTCTATAATTAGTATTTTCATTGTTGTTAGACGGAGTCACCTAGTGCAG	9460 fluorescence intensity (a.u.)
ACACCAACACAATTAATTAATTAATTAATACAACAAGTAACGGAGTCACCTAGTGCAG	23700 fluorescence intensity (a.u.)
TCATGACTCGTAATTTAATCTTGATGTTGAGAGGTGCCTGCGGAGTCACCTAGTGCAG	17300 fluorescence intensity (a.u.)
ATACATGGCAAATTTAATTAATGCCTTCAATACTTTTATCCGGAGTCACCTAGTGCAG	4820 fluorescence intensity (a.u.)
GTAGTTAAATTGTTCAGCCATAATCGACGACAGGCGGAGACGGAGTCACCTAGTGCAG	3320 fluorescence intensity (a.u.)
AAGAAATAGCTAATACTCAATCAATCATGTGCTAATGGACCGGAGTCACCTAGTGCAG	10200 fluorescence intensity (a.u.)
ATAAAGACTGTTCAATCATGATGAAGCTTTACGTAAGCGGCGGAGTCACCTAGTGCAG	34900 fluorescence intensity (a.u.)
GTAGAGTCCAATCCAATCCAATCCAATCTCCGCTGACATCCGGAGTCACCTAGTGCAG	7270 fluorescence intensity (a.u.)
GCCACCACAAGGACAAGGTGATTAGAATAATTAATCTCAGCGGAGTCACCTAGTGCAG	3380 fluorescence intensity (a.u.)
AAAATGATAAATAATTAAGCACGAATCTAGAAGAGGCATTCGGAGTCACCTAGTGCAG	13200 fluorescence intensity (a.u.)

Sequence	binding signal
TTAATTACTCTTAACTATACTCTGTAATTAGCGGGTACTACGGAGTCACCTAGTGCAG	21300 fluorescence intensity (a.u.)
TTCCTGATTTCCCCTTGCCGTCGCCAGCGTAGGCCCGTCCCGGAGTCACCTAGTGCAG	3840 fluorescence intensity (a.u.)
TCTAGAGAATTAGCCCTGATTATAATGTGAGACTTTGCATCGGAGTCACCTAGTGCAG	4870 fluorescence intensity (a.u.)
CTTTAATTGGTGCTTGTTAAACCTCTTAGTGCTTGTTAAACGGAGTCACCTAGTGCAG	29200 fluorescence intensity (a.u.)
AGTTGATTATACTGTACATCAATATAATTCCCACATAACACGGAGTCACCTAGTGCAG	16800 fluorescence intensity (a.u.)
CTGCTATAGATTGCTCTGTCCATTTACATTTGGTTTCTTGCGGAGTCACCTAGTGCAG	5600 fluorescence intensity (a.u.)
ACCATTAATTATTATGCTCTTATAAGAAAATAATAATGCCCGGAGTCACCTAGTGCAG	18300 fluorescence intensity (a.u.)
GATGATGAATGACACAAATGGAGCCATGAAGGATACATCACGGAGTCACCTAGTGCAG	10700 fluorescence intensity (a.u.)
GTAAACTGCGAGACGAATTTATTAAGCCTAATTAATCCGTCGGAGTCACCTAGTGCAG	13500 fluorescence intensity (a.u.)
AAAATATATAATCAATGTTACATTCGATAAAACTAATTTGCGGAGTCACCTAGTGCAG	5270 fluorescence intensity (a.u.)
AGAGAATCCAATTAGTAAACAGAAGAGATGAGCACTAACTCGGAGTCACCTAGTGCAG	4440 fluorescence intensity (a.u.)
GGTTTCTGATCAATTTTCGTCGAAAATGTAAACCCTGTTTCGGAGTCACCTAGTGCAG	3360 fluorescence intensity (a.u.)
AGCAACTAACTGACGATTTACGCACATTTATACACTGCTACGGAGTCACCTAGTGCAG	8220 fluorescence intensity (a.u.)
ACTTAGATGATATCATCCTGTCACTGTCACTAGTCCCACTCGGAGTCACCTAGTGCAG	4300 fluorescence intensity (a.u.)
CCTAATTAGTCCATGATTAGTCATAAGTACTACAATAACCCGGAGTCACCTAGTGCAG	33900 fluorescence intensity (a.u.)
AAATGAAATTAGGTCAAGATGTCAAATAATGGAAGCCCATCGGAGTCACCTAGTGCAG	3420 fluorescence intensity (a.u.)
TGAATAATTAGATCTATTACAAGATTTGTTCTGGTGAGAACGGAGTCACCTAGTGCAG	26000 fluorescence intensity (a.u.)
GCATGATCATTATTTTAACACTTCAGCTCCTCTATAACCCCGGAGTCACCTAGTGCAG	5290 fluorescence intensity (a.u.)
CACTCCGTTTAATTGGAGGGAGTAGATCAGTAGATTGGTCCGGAGTCACCTAGTGCAG	7660 fluorescence intensity (a.u.)
CTTGACTACTTTTATACATGCATGGTTGCTAATTGCATGGCGGAGTCACCTAGTGCAG	5850 fluorescence intensity (a.u.)
GACGCTGATTTCTTATTGTTGTTATAGGAATTTGAATTTTCGGAGTCACCTAGTGCAG	8700 fluorescence intensity (a.u.)
